# Results taken from the supplement of paper PMC4604168 (melanoma cell lines).
# This is one part of the list. Many values rest on one well or one pass, so single values are uncertain.
# Test system: WM3526
# Test: cell count relative to DMSO control; melanoma cells; higher = more viable cells
# Details: library dose: low library concentration; 72 h
# 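Further: cell number obtained by counting DAPI-stained nuclei in high-throughput microscope images with image analysis software, screen run in 1,536-well plates.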
row,SMILES,cell count [%]
1,"Cc1nc(Nc2ncc(C(=O)Nc3c(C)cccc3Cl)s2)cc(N2CCN(CCO)CC2)n1 [dasatanib] + O=C(Nc1ccccc1)c1cc([N+](=O)[O-])ccc1Cl [GW9662] (first compound 0.004 µM, partner dose 2 µM)",103
2,"NC(=O)Nc1cc(-c2cccc(F)c2)sc1C(=O)N[C@H]1CCCNC1 + COc1cc2ncnc(Nc3ccc(Oc4ccccc4)cc3)c2cc1OC [SrcI1] (first compound 0.02 µM, partner dose 2 µM)",83.6
3,"NC(=O)Nc1cc(-c2cccc(F)c2)sc1C(=O)N[C@H]1CCCNC1 + COc1cc2c(Oc3ccc4[nH]c(C)cc4c3F)ncnc2cc1OCCCN1CCCC1 [cediranib] (first compound 0.02 µM, partner dose 0.4 µM)",89.7
4,"C=CCn1c(=O)c2cnc(Nc3ccc(N4CCN(C)CC4)cc3)nc2n1-c1cccc(C(C)(C)O)n1 + N#Cc1c(O)c2c(-c3ccc(-c4ccccc4O)cc3)csc2[nH]c1=O [A769662] (first compound 0.02 µM, partner dose 2 µM)",94.9
5,"NC(=O)Nc1cc(-c2cccc(F)c2)sc1C(=O)N[C@H]1CCCNC1 + c1cc(-c2cnn3cc(-c4ccc(OCCN5CCCCC5)cc4)cnc23)ccn1 [Dorsomorphin] (first compound 0.02 µM, partner dose 0.4 µM)",80
6,"Cc1nc(Nc2ncc(C(=O)Nc3c(C)cccc3Cl)s2)cc(N2CCN(CCO)CC2)n1 [dasatanib] + O=C(CCCCCCC(=O)Nc1ccccc1)NO [vorinostat] (first compound 0.004 µM, partner dose 0.08 µM)",106
7,"Cc1nc(Nc2ncc(C(=O)Nc3c(C)cccc3Cl)s2)cc(N2CCN(CCO)CC2)n1 [dasatanib] + Nc1cccc2c1CN(C1CCC(=O)NC1=O)C2=O [lenalidomide] (first compound 0.004 µM, partner dose 1 µM)",89.1
8,"C=CCn1c(=O)c2cnc(Nc3ccc(N4CCN(C)CC4)cc3)nc2n1-c1cccc(C(C)(C)O)n1 + C[C@@H]1CCN(C(=O)CC#N)C[C@@H]1N(C)c1ncnc2[nH]ccc12 [CP690550] (first compound 0.02 µM, partner dose 1 µM)",101
9,"CO[C@@H]1[C@H](N(C)C(=O)c2ccccc2)C[C@H]2O[C@]1(C)n1c3ccccc3c3c4c(c5c6ccccc6n2c5c31)C(=O)NC4 [Midostaurin] + O=C(Nc1ccccc1)c1cc([N+](=O)[O-])ccc1Cl [GW9662] (first compound 0.08 µM, partner dose 2 µM)",117
10,"NC(=O)Nc1cc(-c2cccc(F)c2)sc1C(=O)N[C@H]1CCCNC1 + COc1ccc(-c2ccc3c(N4CCOCC4)nc(N4C[C@@H](C)O[C@@H](C)C4)nc3n2)cc1CO [KU0063794] (first compound 0.02 µM, partner dose 0.02 µM)",78
11,"CO[C@@H]1[C@H](N(C)C(=O)c2ccccc2)C[C@H]2O[C@]1(C)n1c3ccccc3c3c4c(c5c6ccccc6n2c5c31)C(=O)NC4 [Midostaurin] + Oc1nc(-c2ccc(C(F)(F)F)cc2)nc2c1CSCC2 [XAV939] (first compound 0.08 µM, partner dose 2 µM)",97.6
12,"C[C@]1(c2nc3c(C(N)=O)cccc3[nH]2)CCCN1 [Veliparib] + Cc1cc(N2CCOCC2)cc2[nH]c(-c3c(NC[C@@H](O)c4cccc(Cl)c4)cc[nH]c3=O)nc12 [BMS536924] (first compound 1.4 µM, partner dose 0.2 µM)",91.1
13,"CN(C)S(=O)(=O)c1ccc2c(c1)/C(=C/c1cc3c([nH]1)CCCC3)C(=O)N2 + CCCCCCCCCCCC1=C(O)C(=O)C=C(O)C1=O [Embelin] (first compound 0.4 µM, partner dose 1.2 µM)",123
14,"C[C@]1(c2nc3c(C(N)=O)cccc3[nH]2)CCCN1 [Veliparib] + c1cc(-c2cnn3cc(-c4ccc(OCCN5CCCCC5)cc4)cnc23)ccn1 [Dorsomorphin] (first compound 1.4 µM, partner dose 0.4 µM)",94
15,"NC(=O)Nc1cc(-c2cccc(F)c2)sc1C(=O)N[C@H]1CCCNC1 + Cn1cc(/C=C2\C(=O)Nc3cccnc32)c2ccccc21 [GW441756] (first compound 0.02 µM, partner dose 0.4 µM)",73.4
